This passage reports binding signal results from publication PMC7819943, “Rice protein-binding microarrays: a tool to detect cis-acting elements near promoter regions in rice”.

Some of the results follow.

The target of the assay is T1, OsWOX13 (Oryza sativa, UniProt Q5QMM3 1-267).
T1 sequence: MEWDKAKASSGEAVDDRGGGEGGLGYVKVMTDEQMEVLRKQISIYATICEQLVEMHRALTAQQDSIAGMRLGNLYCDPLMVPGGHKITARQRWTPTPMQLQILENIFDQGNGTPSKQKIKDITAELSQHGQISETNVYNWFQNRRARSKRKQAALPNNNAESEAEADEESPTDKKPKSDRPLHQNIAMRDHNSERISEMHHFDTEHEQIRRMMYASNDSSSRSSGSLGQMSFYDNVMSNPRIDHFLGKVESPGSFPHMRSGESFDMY
Briefly: protein-binding microarray (RPBM); PBS, 2% BSA, 51.3 ng/ul salmon testes DNA, 50 uM zinc acetate, 200 nM TF, 25 C, 1 h; high values mean tight binding. The following applies: protein: recombinant; tags: N-terminal polyhistidine and DsRed monomer fusion (pET32a); label: CyDye5-dUTP incorporated in the synthesized complementary strand; 3' TTTTT single-stranded linker to array surface; dsDNA, one strand shown. An outline of the steps:
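The binding signal for each feature is its fluorescence intensity in arbitrary units. An Axon 4000B scanner was used to read a custom Agilent array that had been made double-stranded with Cy5-dUTP primer extension, blocked with 2% BSA, incubated at 25 °C for 1 h with 200 nM protein in PBS, 2% BSA, salmon testes DNA and 50 µM zinc acetate, and washed. The protein was an N-terminal polyhistidine–DsRed transcription factor fusion from E. coli BL21-CodonPlus, purified on Ni–NTA.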
For the sequence “CCTCTCTAAGATGATGGGATTGACAAGCAGACCCCGTATTCGGAGTCACCTAGTGCAG”, the binding signal is 8670 fluorescence intensity (a.u.).

On to “TCTAAATTAGGCTTACCAATATTTGGTAATTTCAATAGTGCGGAGTCACCTAGTGCAG”, for which the binding signal was 18500 fluorescence intensity (a.u.).

Turning to “AATAATTAAACATTAAACACGAAAATTCACGACTGTATTTCGGAGTCACCTAGTGCAG”, the binding signal was 20000 fluorescence intensity (a.u.).

Turning to “AAAATAATTTGGTGAATTGAAGACTAGAACCCATGATCTCCGGAGTCACCTAGTGCAG”, the binding signal was 9840 fluorescence intensity (a.u.).

For “AAGTTAAACTGTTTCAAGTTTGATTGACTTTGTAGACAAACGGAGTCACCTAGTGCAG”, the binding signal is 15100 fluorescence intensity (a.u.).

On to “GTTGCATGATTAAACGAATTGACACGTCCTGAACCCGATTCGGAGTCACCTAGTGCAG”, for which the binding signal was 22100 fluorescence intensity (a.u.).

As for “GCATCACCAATCATCATTTTAAGGTAGTGAACTCTATCATCGGAGTCACCTAGTGCAG”, the binding signal was 9670 fluorescence intensity (a.u.).

Regarding “TATTAACTGTTTTGTTTGGTTAAGAGACATGGGAATTTTGCGGAGTCACCTAGTGCAG”, the binding signal is 5000 fluorescence intensity (a.u.).

On to “CGACGTCGATGATTGGCTCCGTCGCACTTGTCGACAGGAACGGAGTCACCTAGTGCAG”, for which the binding signal is 20700 fluorescence intensity (a.u.).

As for “CTGGTTTCATTTTAATTGACGTTTTGGACAATGACACGGTCGGAGTCACCTAGTGCAG”, the binding signal is 29000 fluorescence intensity (a.u.).

With “GCTGACGAGGAAGAAGGTCTGTTGCAGTTATTCCTGGTGTCGGAGTCACCTAGTGCAG”, the binding signal is 3290 fluorescence intensity (a.u.).

Regarding “ATCAATAATCATTCGTAGCGAAATTATTTTCTCCCGATATCGGAGTCACCTAGTGCAG”, the binding signal was 5010 fluorescence intensity (a.u.).

As for “ATGATATACTTGATTTTGTAGCTAGGCCCTATTCGAGTTCCGGAGTCACCTAGTGCAG”, the binding signal was 8700 fluorescence intensity (a.u.).

For the sequence “ATAATTGATCACTAAGAATATGATCAGTCGCCGCCATTGACGGAGTCACCTAGTGCAG”, the binding signal is 31000 fluorescence intensity (a.u.).

“CCCTAATTATTGGATGATTACAGGTGTGTTAACACTAACACGGAGTCACCTAGTGCAG”: the binding signal was 33400 fluorescence intensity (a.u.).

Turning to “AATCTGCAATTATCAGGATTGACGAGAGAATCAAAGACCTCGGAGTCACCTAGTGCAG”, the binding signal is 17900 fluorescence intensity (a.u.).

In the case of “ACTTACACAGTAATTACACCTCACTTACACCCGCTTACACCGGAGTCACCTAGTGCAG”, the binding signal is 4370 fluorescence intensity (a.u.).

With “TTTGCTAATGAAGGATTAATTAGACTTAATAAATTCGTCTCGGAGTCACCTAGTGCAG”, the binding signal was 20600 fluorescence intensity (a.u.).

“GCCTATTGCATAATTGCACAAACGACGACGAGCAGCAGCACGGAGTCACCTAGTGCAG”: the binding signal was 3660 fluorescence intensity (a.u.).

Turning to “AAACAAATTTGCTGACTAGGATTCCACGTCAGCGAAACCACGGAGTCACCTAGTGCAG”, the binding signal is 7980 fluorescence intensity (a.u.).

Regarding “TAAAATTAGAAACAATTGGATGATAAAGTTCAGTCTTTCACGGAGTCACCTAGTGCAG”, the binding signal was 8150 fluorescence intensity (a.u.).

For the sequence “TCTATATAATTAATGGAGTAATTTATACAAGCTAGAGCGCCGGAGTCACCTAGTGCAG”, the binding signal was 27800 fluorescence intensity (a.u.).

As to “TCTCTAAATTTCTTCCAAATGGAATTATTCTAAGTTGAATCGGAGTCACCTAGTGCAG”, the binding signal was 4080 fluorescence intensity (a.u.).

Take “CATGATTTTGGCATGGCACTTAACCCCAAATATTGTGGCTCGGAGTCACCTAGTGCAG”: the binding signal is 16900 fluorescence intensity (a.u.).

With “TTGAGATTGGATTCCAAAACTGGTGCATTAAAGTATAATTCGGAGTCACCTAGTGCAG”, the binding signal is 11000 fluorescence intensity (a.u.).

“CCAGCCAATCAGAACCCAACTTGCCAACTCCTGGTCATAACGGAGTCACCTAGTGCAG”: the binding signal is 17100 fluorescence intensity (a.u.).

Turning to “TACTAACTGACGGTTTGCCTCCTCCTTGTTATCGCCGACGCGGAGTCACCTAGTGCAG”, the binding signal was 13000 fluorescence intensity (a.u.).

Take “CGCCTCATCTTTGGTTAATTGTGTTCCGGTTCAGGCTATTCGGAGTCACCTAGTGCAG”: the binding signal was 4650 fluorescence intensity (a.u.).

In the case of “ATGTAAATTACTTTTAGGCTTTATTGAATTACTTTTATATCGGAGTCACCTAGTGCAG”, the binding signal was 7630 fluorescence intensity (a.u.).

Turning to “CCTAACTGACTGACACGTGAACCCGTAACTCGTGGATCCCCGGAGTCACCTAGTGCAG”, the binding signal was 33100 fluorescence intensity (a.u.).

Consider “CAAATACAAATTATCTCAAATACGAATAAGGATCGAATATCGGAGTCACCTAGTGCAG”, for which the binding signal is 3240 fluorescence intensity (a.u.).

On to “CTCACCAATTAAACAACACCATTAACCACCACCCCATCTACGGAGTCACCTAGTGCAG”, for which the binding signal is 8330 fluorescence intensity (a.u.).

“GATAATAGTTTACTCGTTGATTAATCCAATTCGTAATACACGGAGTCACCTAGTGCAG”: the binding signal was 12600 fluorescence intensity (a.u.).

“AAAATTGACAATAATCCAAACAACCGTACTGTACCAAAACCGGAGTCACCTAGTGCAG”: the binding signal was 19400 fluorescence intensity (a.u.).

As for “CATTAATTCTCCAAACATATATTGATAAAATCTTTCAAAACGGAGTCACCTAGTGCAG”, the binding signal was 3470 fluorescence intensity (a.u.).

For the sequence “TAGACTAGATTTATCTATTTATTTTGATAGTGGGGAAGTACGGAGTCACCTAGTGCAG”, the binding signal was 7180 fluorescence intensity (a.u.).

Regarding “GCTAAAATTTATGAACTGAAACTGGAATTCCCTCAAACAGCGGAGTCACCTAGTGCAG”, the binding signal is 5990 fluorescence intensity (a.u.).

On to “AATAACAAATTCCTAATTGCCACATTTTAAAAGTGACAAACGGAGTCACCTAGTGCAG”, for which the binding signal is 14900 fluorescence intensity (a.u.).

As for “TCCATATTTGATTATTTTCAACGTTACTCCTCTAGTGCCTCGGAGTCACCTAGTGCAG”, the binding signal is 21100 fluorescence intensity (a.u.).

With “GCATAAATTGACTATTAGATTGAGTATAAATGAATTGGAGCGGAGTCACCTAGTGCAG”, the binding signal was 51600 fluorescence intensity (a.u.).

“TGATAAATTTAGAAATATCAATTTTACATGATTTATCTTTCGGAGTCACCTAGTGCAG”: the binding signal is 14900 fluorescence intensity (a.u.).

Consider “TCACCAATCATGACAAACAACGGCACCACGCAACTAAGAACGGAGTCACCTAGTGCAG”, for which the binding signal was 12400 fluorescence intensity (a.u.).
